# The list shows a part of the results. No stated cut-off is given here; in the data, active = 3.2 or more and inactive = the rest. Only a few entries rise above the background.
# Assays:
# Test in all cases: enrichment score (SH2-bound / input frequency) (ratio); bacterial display of known human phosphotyrosine sites (pTyr-Var adds point mutants) read by sequencing; higher = stronger binding; tyrosines were phosphorylated by kinases first
# Conditions in all cases: peptide library: Human pTyr
# [1] = target: SHP2 C-SH2 domain E139D
# [2] = target: SHP2 C-SH2 domain wild-type
# [3] = target: SHP2 N-SH2 domain L43F
# [4] = target: SHP2 N-SH2 domain T42A
# [5] = target: SHP2 N-SH2 domain T52S
# [6] = target: SHP2 N-SH2 domain wild-type
# 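Further: displayed peptides selected on beads carrying the immobilized SH2 domain, with library peptides lacking any tyrosine serving as negative controls.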
Binder,enrichment score [1],enrichment score [2],enrichment score [3],enrichment score [4],enrichment score [5],enrichment score [6]
GSGADRIYDLNIPAF [NCK2_HUMAN_110],inactive: 0.571,inactive: 0.468,inactive: 0.643,inactive: 0.508,inactive: 0.618,inactive: 0.627
NGGSSLSYTNPAVAA [MUC1_HUMAN_1243],inactive: 0.786,inactive: 0.629,inactive: 0.648,inactive: 0.739,inactive: 0.751,inactive: 0.682
SGLCSPSYVAVTPFS [MYC_HUMAN_74],inactive: 1.23,inactive: 0.98,inactive: 1,inactive: 0.911,inactive: 1.13,inactive: 1.2
IEFVNQAYGSFKEAK [NOS2_HUMAN_151_YA],inactive: 0.585,inactive: 0.638,inactive: 0.839,inactive: 0.786,inactive: 0.733,inactive: 0.924
FGMSRDIYSTDYYRV [NTRK1_HUMAN_676],inactive: 0.844,inactive: 0.892,inactive: 0.642,inactive: 0.776,inactive: 0.655,inactive: 0.744
ARSAYSSYSAPVSSS [NFL_HUMAN_43],inactive: 0.839,inactive: 1.08,inactive: 0.559,inactive: 0.532,inactive: 0.518,inactive: 0.552
EVADKAAYLTSLNSA [MYH4_HUMAN_389],inactive: 0.731,inactive: 0.614,inactive: 0.668,inactive: 0.66,inactive: 0.618,inactive: 0.548
DVASTDAYRVGGHTM [NTRK2_HUMAN_707_YA],inactive: 0.597,inactive: 0.511,inactive: 0.614,inactive: 0.47,inactive: 0.572,inactive: 0.535
YVHVNATYVNVKCVA [MET_HUMAN_1356],inactive: 2.05,inactive: 1.82,inactive: 1.96,inactive: 1.88,inactive: 2.48,inactive: 2.3
DHVLPIDYYFPPQKT [ANDR_HUMAN_552],inactive: 0.916,inactive: 0.703,inactive: 0.905,inactive: 0.804,inactive: 0.834,inactive: 0.86
FGLGSRAYPHFCAFA [NOS3_HUMAN_657],inactive: 1.46,inactive: 1.07,inactive: 1.29,inactive: 1.15,inactive: 1.6,inactive: 1.78
ATLLNENYVEDDDNM [NMT1_HUMAN_180_YA],inactive: 1.35,inactive: 1.06,inactive: 1.11,inactive: 1.11,inactive: 1.32,inactive: 1.08
FGLARDMYDKEAASV [MET_HUMAN_1230_YA],inactive: 0.589,inactive: 0.713,inactive: 0.627,inactive: 0.861,inactive: 0.625,inactive: 0.85
KPFENGQYLDIYGIT [NEGR1_HUMAN_187],inactive: 0.974,inactive: 0.745,inactive: 0.784,inactive: 0.764,inactive: 0.896,inactive: 1.03
YEDAGSHYLCLLKAR [MYLK_HUMAN_471],inactive: 1.51,inactive: 1.24,inactive: 1.42,inactive: 1.24,inactive: 1.7,inactive: 2.17
TNFMMTPYVVTRYYR [MK09_HUMAN_185],inactive: 1.7,inactive: 1.29,inactive: 1.41,inactive: 0.928,inactive: 1.08,inactive: 1.51
SHQGPVIYAQLDHSG [MPZL1_HUMAN_241],active: 4.5,active: 7.84,active: 19,active: 17.3,active: 12,active: 5.11
APEEESAYVAGEKRQ [NSF1C_HUMAN_167],inactive: 0.632,inactive: 0.836,inactive: 0.931,inactive: 0.832,inactive: 0.528,inactive: 1.31

Binder,enrichment score [1],enrichment score [2],enrichment score [3],enrichment score [4],enrichment score [5],enrichment score [6]
IRPRRCKYFDTNSEV [MIER1_HUMAN_155],inactive: 0.677,inactive: 0.809,inactive: 0.866,inactive: 1.56,inactive: 0.93,inactive: 1.05
GSSNGHVYEKLSSIE [NMDE2_HUMAN_1474],inactive: 0.746,inactive: 0.798,inactive: 0.553,inactive: 0.569,inactive: 0.686,inactive: 0.857
EASLEPGYPKHIKEL [MMP14_HUMAN_399],inactive: 1.26,inactive: 0.695,inactive: 0.641,inactive: 0.844,inactive: 0.959,inactive: 0.879
DMADKEAYSVHNKTG [MET_HUMAN_1235_YA],inactive: 1.04,inactive: 0.674,inactive: 0.756,inactive: 0.719,inactive: 0.724,inactive: 0.711
KEGLRDFYLDQFRTK [NMDE2_HUMAN_1133],inactive: 0.996,inactive: 0.758,inactive: 0.71,inactive: 0.904,inactive: 1.1,inactive: 0.942
ADFAPEDYSSFQHIR [NFATC1_HUMAN_371],inactive: 0.769,inactive: 0.632,inactive: 0.676,inactive: 0.6,inactive: 0.519,inactive: 0.84
DDGTFGEYSDAEDHK [NRCAM_HUMAN_1225],inactive: 0.913,inactive: 0.767,inactive: 1.01,inactive: 0.864,inactive: 0.9,inactive: 0.958
GLRKTGSYGALAEIT [MYPT1_HUMAN_446],inactive: 0.975,inactive: 0.765,inactive: 0.788,inactive: 0.788,inactive: 0.892,inactive: 0.844
DEPEAEPYDESVEAK [MK11_HUMAN_323],inactive: 1.28,inactive: 1.16,inactive: 1.24,inactive: 1.31,inactive: 1.29,inactive: 1.09
IMRNDREYDSGDTDE [NOL8_HUMAN_376],inactive: 1.51,inactive: 1.13,inactive: 1.24,inactive: 1.05,inactive: 1.2,inactive: 1.4
EVYQVTVYQAGESDT [MDM2_HUMAN_281],inactive: 0.95,inactive: 0.815,inactive: 0.772,inactive: 0.863,inactive: 0.866,inactive: 0.849
NQDDVGVYTCLVVNG [MYLK_HUMAN_231],inactive: 1.47,inactive: 1.28,inactive: 1.46,inactive: 1.35,inactive: 1.3,inactive: 1.24
FQDSIFEYFNTAPLA [MRCKB_HUMAN_954],inactive: 0.879,inactive: 0.882,inactive: 1.07,inactive: 0.661,inactive: 0.726,inactive: 0.935
SEDRDLLYSIDAARS [ANLN_HUMAN_671_YA],inactive: 0.62,inactive: 0.47,inactive: 0.624,inactive: 0.558,inactive: 0.569,inactive: 0.517
VLEGKPIYVDCFGNL [ANK2_HUMAN_1382],inactive: 1.14,inactive: 1.15,inactive: 1.39,inactive: 1.52,inactive: 1.74,inactive: 1.16
SGAWGPLYDEVQMGP [NPHN_HUMAN_1193],inactive: 0.793,inactive: 0.623,inactive: 0.532,inactive: 0.61,inactive: 0.48,inactive: 0.564
AGASEPKYYSQPILV [MYPC1_HUMAN_823],inactive: 0.817,inactive: 0.663,inactive: 0.744,inactive: 0.875,inactive: 0.58,inactive: 0.762
VAAHCGHYRVTKLLL [ANK2_HUMAN_378],inactive: 2.26,inactive: 2.33,inactive: 2.28,inactive: 2.51,inactive: 2.65,inactive: 3.04
